# Source: PubChem BioAssay AID504706 (National Center for Advancing Translational Sciences (NCATS), 2011)
# The whole screen tested about 320,000 compounds, of which about 200 (0.062%) were called active. The shares of active, inactive and inconclusive entries below differ from those in the screen. Calls follow the shape of the dose curve; as a rule, active = well fitted activation curve with a large enough effect; inconclusive = small, poorly fitted or top-dose-only effect; inactive = no such curve, though single readings can be large or run the other way. No potency is given beside an inconclusive call; the fits are too rough.
# Assay: qHTS assay for re-activators of p53 using a Luc reporter; also: nearly all actives have a fitted effect of over 45% in size; as to activity change, positive = activation: % of control where 0% means no effect
# Conditions: H1299 p53-A138V BP100-luciferase reporter, luminescence, 24 h; series mostly up to 92.2 µM; activity change, positive = activation: at the top concentration
# Procedure, shortened: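 H1299 (p53-null), stable ts p53-A138V + BP100-Luc; 1000 cells/well, Opti-MEM/10% FBS; cpd 4 pt, 1:5; 24 h, 37 deg C, 5% CO2; detection reagent 10 min RT; luminescence.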
# Potency is read from the fitted curve at half-maximal effect; tags tell the direction and shape of the fitted curve.
Structure (SMILES),Potency,"activity change, positive = activation"
CCOCC(=O)Nc1ncc(S(=O)(=O)c2ccc([N+](=O)[O-])cc2)s1,"inconclusive [activator, single point]",
O=C(CCOc1ccccc1)Nc1ccnn1C1CCN(Cc2ccc(F)cc2)CC1,,inactive: 3.41%
Cc1ccc(-c2noc(CCC(=O)NCCN3CCN(Cc4ccccc4)CC3)n2)cc1,"inconclusive [activator, single point]",
Cc1ccc(NS(=O)(=O)c2cccc(C(=O)NNC(=O)c3cccn3C)c2)c(C)c1,,inactive: 16.9%
Cn1c(=O)n(Cc2ccccc2)c(=O)c2c1nc1n2CCCN1Cc1ccccc1,,inactive: 3.63%
Cc1ccc(S(=O)(=O)N(CC(=O)NC2CC2)c2ccc(C)c(Cl)c2)cc1,,inactive: -10.3%
Cc1ccnc(NC(=O)CCC2COc3ccccc3O2)c1 (stereo not drawn),"inconclusive [activator, full curve, poor fit]",
O=C1C2C(C(=O)N1/N=C/c1ccc(N3CCCCC3)o1)C1C=CC2C12CC2 (stereo not drawn),"inconclusive [activator, partial curve, poor fit]",
O=C(Nc1ccccc1)c1ccc2c(c1)OCCO2,"inconclusive [activator, partial curve, poor fit]",
CCc1ccc(CNc2ccc3c(c2)ncn3C)cc1,"inconclusive [activator, partial curve, poor fit]",
Cc1ccsc1/C=C1\CCC(C2CCCC2)C1=O (stereo not drawn),"inconclusive [activator, partial curve, poor fit]",
CCCCOc1ccc(CN(CCO)CCO)cc1[N+](=O)[O-],"inconclusive [activator, partial curve, poor fit]",
Cc1ccc(N=Cc2cc(Cc3ccccc3Cl)cc([N+](=O)[O-])c2O)c(O)c1,"inconclusive [activator, single point]",
O=C(CC(=O)c1ccccc1O)c1cccc(F)c1,"inconclusive [activator, partial curve, poor fit]",
Cn1cccc1/C=C1\SC(=Nc2ccccc2)NC1=O,"inconclusive [activator, full curve, poor fit]",
O=S(=O)(c1ccccc1)N1CCN(Cc2c(O)ccc3ccccc23)CC1,,inactive: 0.538%
C/C(=N\NC(=S)Nc1cc(S(=O)(=O)N2CCOCC2)ccc1Cl)c1ccccc1F,"inconclusive [activator, single point]",
Cn1cnnc1SCc1ccc(C(=O)N/N=C/c2cccs2)cc1,,inactive: 3.84%
CCOc1ccc(NC(=O)CCN2CCN(C)CC2)cc1,"inconclusive [activator, single point]",
Cc1nc(NC(=O)c2cccc(Cl)c2)sc1C(=O)N1CCCCC1,,inactive: -1.14%
Fc1ccccc1-c1cc2ccccc2cn1,"inconclusive [activator, partial curve, poor fit]",
CCOc1ccccc1N1C(=O)CC(Sc2n[nH]c(-c3ccccc3)n2)C1=O (stereo not drawn),,inactive: 23.6%

Structure (SMILES),Potency,"activity change, positive = activation"
Cc1cccc(/C(N)=N/OC(=O)c2ccc3c(c2)OCO3)c1,"inconclusive [activator, full curve, poor fit]",
C#CCOCCOCCOCCNc1nc(N2CCN(C(=O)CCCCCCCCCCNC(=O)[C@H](CCCCN)n3cc(C[C@@H](C)CC)nn3)CC2)nc(N2CCN(C(=O)CCCCCCCCCCNC(=O)[C@H](CCCN=C(N)N)n3cc(C[C@@H](C)CC)nn3)CC2)n1,,inactive: -3.4%
CCCS(=O)(=O)c1c(S(=O)(=O)CCC)c2c(C)cccn2c1C(=O)N/N=C/c1cc(O)cc(O)c1,"inconclusive [activator, partial curve, poor fit]",
COc1cc(C#Cc2ccc3cc(CCCO)oc(=O)c3c2)cc(OC)c1,"inconclusive [activator, partial curve, poor fit]",
CCCC(=O)NC(c1cccs1)c1cc([N+](=O)[O-])c2cccnc2c1O (stereo not drawn),"inconclusive [activator, partial curve, poor fit]",
Cc1cc(C)c2nc(N(CCCN(C)C)C(=O)c3ccc(S(=O)(=O)N4CC(C)OC(C)C4)cc3)sc2c1 (stereo not drawn),,inactive: -0.42%
COc1ccc(NC(=O)C(C)N2c3cccc4cccc(c34)S2(=O)=O)cc1OC (stereo not drawn),,inactive: -17.1%
COc1ccc(-c2nc3ccccc3o2)cc1NC(=O)CSc1ccc(Cl)cc1,"inconclusive [activator, single point]",
Cc1cnc(C(=O)OCC(=O)c2csc(N3CCCCC3)n2)cn1,"inconclusive [activator, partial curve, poor fit]",
O=C(COc1ccc(Br)cc1)Nc1ccc(C(=O)Nc2ccccc2C(=O)O)cc1,,inactive: -8.31%
COc1cc(-c2cc(C(=O)NCc3ccco3)c3ccccc3n2)cc(OC)c1OC,,inactive: -6.24%
CCc1ccc(N2C(=O)Cc3c2nc(N)c(C#N)c3N)cc1,"inconclusive [activator, partial curve, poor fit]",
CCOC(=O)c1c(C)oc2c1c(C(c1cccnc1)N1CCN(C)CC1)c(O)c1ccccc12 (stereo not drawn),"inconclusive [activator, partial curve, poor fit]",
CCC(CC)C(=O)Nc1cccc(C(=O)N2CCCCCC2)c1,,inactive: 5.76%
CC1CCN(C(=O)/C(=C/c2ccccc2Cl)c2ccccc2)CC1,,inactive: -21.3%
COc1ccc(CCNC2CCc3ccccc3C2)cc1 (stereo not drawn),"inconclusive [activator, partial curve, poor fit]",
O=C(CCNS(=O)(=O)c1ccccc1)N1CCC(Cc2ccccc2)CC1,,inactive: -0.618%
Cc1ccc(-c2nc(COC(=O)C3=NN(c4ccccc4)C(=O)CC3)cs2)cc1,"inconclusive [activator, partial curve, poor fit]",
Cc1ccc(O)c(N)c1,"inconclusive [activator, partial curve, poor fit]",
COc1ccc(N2CCN(C(=O)CCNS(=O)(=O)c3ccccc3)CC2)cc1,,inactive: -0.47%
COc1cccc(/C=N/Nc2nc3ccccc3n3cnnc23)c1O,active: 31.6 µM,
